Hit rate of the full screen: of about 310,000 compounds, about 2,200 (0.71%) showed an effect of 50% or more. Effects have a minus sign here. Some of the results follow.
Target: human ether-à-go-go-related gene (hERG) potassium channel (human, UniProt Q12809)
Test: primary screen, population patch clamp on CHO cells stably expressing hERG

Chain of human ether-à-go-go-related gene (hERG) potassium channel (Q12809 whole entry, looked up): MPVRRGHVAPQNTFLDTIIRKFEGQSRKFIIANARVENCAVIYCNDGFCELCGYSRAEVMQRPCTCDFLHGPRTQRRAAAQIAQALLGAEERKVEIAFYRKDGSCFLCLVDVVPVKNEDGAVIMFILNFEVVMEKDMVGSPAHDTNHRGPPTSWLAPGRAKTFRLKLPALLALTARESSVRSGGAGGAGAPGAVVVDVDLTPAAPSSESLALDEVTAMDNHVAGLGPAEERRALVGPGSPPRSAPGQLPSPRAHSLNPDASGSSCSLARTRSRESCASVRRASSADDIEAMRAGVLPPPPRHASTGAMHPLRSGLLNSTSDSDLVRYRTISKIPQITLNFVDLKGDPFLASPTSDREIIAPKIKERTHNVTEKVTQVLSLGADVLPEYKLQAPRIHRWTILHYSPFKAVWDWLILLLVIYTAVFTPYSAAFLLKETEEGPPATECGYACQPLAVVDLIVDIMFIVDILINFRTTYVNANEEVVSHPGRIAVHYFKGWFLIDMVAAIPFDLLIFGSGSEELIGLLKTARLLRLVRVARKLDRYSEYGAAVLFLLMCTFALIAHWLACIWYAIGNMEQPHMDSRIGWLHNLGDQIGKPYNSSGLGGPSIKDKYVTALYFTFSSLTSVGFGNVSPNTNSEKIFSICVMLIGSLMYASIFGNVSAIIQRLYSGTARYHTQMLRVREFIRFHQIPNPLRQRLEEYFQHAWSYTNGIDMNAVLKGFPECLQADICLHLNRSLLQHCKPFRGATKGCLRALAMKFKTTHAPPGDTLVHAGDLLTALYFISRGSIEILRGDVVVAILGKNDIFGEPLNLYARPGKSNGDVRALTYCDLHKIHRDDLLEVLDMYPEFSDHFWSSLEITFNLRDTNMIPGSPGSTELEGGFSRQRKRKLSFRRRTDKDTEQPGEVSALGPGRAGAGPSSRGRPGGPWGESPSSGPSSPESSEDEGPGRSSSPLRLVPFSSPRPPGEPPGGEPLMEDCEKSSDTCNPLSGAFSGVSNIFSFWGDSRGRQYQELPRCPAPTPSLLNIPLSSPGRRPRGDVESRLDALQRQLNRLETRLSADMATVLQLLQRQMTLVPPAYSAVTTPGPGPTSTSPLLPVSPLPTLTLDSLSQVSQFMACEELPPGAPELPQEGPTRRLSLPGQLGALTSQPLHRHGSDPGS

Compared with Cc1[nH]cnc1CSCCN.Cl, CCOC(=O)c1cnc(SCc2nc(N)nc(Nc3ccc(F)cc3)n2)nc1N is lower in “hERG current change (%, negative = inhibition) at 1uM” value: 13% for the first, 0.967% for the second.

First: OC(CN=c1sc2ccccc2n1CC(O)COc1ccccc1)COc1ccccc1 (centres unmarked)
Second: O=C(CCNS(=O)(=O)c1ccccc1F)N1CCN(C(c2ccccc2)c2ccccc2)CC1
The “hERG current change (%, negative = inhibition) at 1uM” value of the first is lower: 2.74% for the first, 8.42% for the second.

First: O=[N+]([O-])c1cccc(CN2CCC(Cc3ccccc3)CC2)c1
Second: O=C(NCc1ccccc1)N1CCC(CO)(Cc2cccc(F)c2)CC1
The “hERG current change (%, negative = inhibition) at 1uM” value of the first is lower: -45.6% for the first, 14.3% for the second.

First: CN(Cc1c(C(=O)N/N=C/c2cccc(F)c2)nnn1-c1nonc1N)C1CCCCC1
Second: O=C(Nc1ccc2c(c1)OCO2)C1CCN(C(=O)CSc2ncnc3ccccc23)CC1
The “hERG current change (%, negative = inhibition) at 1uM” value of the first is higher: 26.7% for the first, -5.72% for the second.

Going from CC(=O)Nc1ccc(-c2nnc(SCc3ccc(C)cc3)n2C)cc1 to Cc1ccnc(NS(=O)(=O)c2ccc(NC(=O)Cc3ccc(Cl)cc3)cc2)n1, the “hERG current change (%, negative = inhibition) at 1uM” value rises from 10.2% to 15.9%.

Going from CCc1cccc(C)c1N=Cc1c(O)c2ccccc2oc1=O to CCOC(=O)Cc1cc(=O)[nH]c(Nc2nc3ccccc3o2)n1, the “hERG current change (%, negative = inhibition) at 1uM” value falls from 12.5% to 4.8%.

First: Cc1ccccc1N1CCN(C2CCCN(C(=O)CCn3cnnn3)C2)CC1 (centres unmarked)
Second: Cc1cccc(C)c1NC(=O)N1CCN(c2nc3ccccc3s2)CC1
The “hERG current change (%, negative = inhibition) at 1uM” value of the first is higher: 11.9% for the first, 9.9% for the second.

Compared with CCOc1cc(/C=C2\NC(=O)NC2=O)cc([N+](=O)[O-])c1O, COc1cc(/C=N/Nc2ccc(C(F)(F)F)cn2)ccc1O is higher in “hERG current change (%, negative = inhibition) at 1uM” value: -7.26% for the first, 16.8% for the second.

Compared with O=S(=O)(c1ccc(NC(=S)NN=C(Cc2ccccc2)Cc2ccccc2)cc1)N1CCOCC1, O=C(CN1C(=O)C2CC=CCC2C1=O)Nc1ccc(S(=O)(=O)N2CCOCC2)cc1 (centres unmarked) is higher in “hERG current change (%, negative = inhibition) at 1uM” value: 11.4% for the first, 15.6% for the second.

First: O=C(NC1CCSc2ccccc21)c1cc(S(=O)(=O)N2CCOCC2)ccc1F (centres unmarked)
Second: Cc1ccc(C)c(S(=O)(=O)Nc2ccccc2C(=O)Nc2cc(C)on2)c1
The “hERG current change (%, negative = inhibition) at 1uM” value of the first is lower: 8.19% for the first, 10% for the second.

Compared with Cc1cc(NCCCN2CCOCC2)n2nc(C)c(-c3ccc(F)cc3)c2n1, CCCC(=O)N(CCN1CCOCC1)c1nc2c(C)cccc2s1.Cl is higher in “hERG current change (%, negative = inhibition) at 1uM” value: -0.809% for the first, 6.75% for the second.

Going from CCC(C(=O)Nc1cccnc1)n1c(=O)[nH]c2ccccc2c1=O (centres unmarked) to COc1ccccc1NC(=O)CC1C(=O)NCCN1C(=O)Nc1ccc(Cl)c(Cl)c1 (centres unmarked), the “hERG current change (%, negative = inhibition) at 1uM” value falls from 13.2% to 9.53%.

Compared with CCN(CC)S(=O)(=O)c1ccc2c(c1)nc(CCC(=O)OCC(=O)Nc1c(F)cccc1F)n2C, COC(=O)c1ccc(S(=O)(=O)NCCSc2nnc3c4ccccc4n(C)c3n2)cc1 is higher in “hERG current change (%, negative = inhibition) at 1uM” value: -3.23% for the first, 1.09% for the second.

First: CC(=O)c1sc(NC(=O)CCN2C(=O)C3CC=CCC3C2=O)nc1-c1ccccc1 (centres unmarked)
Second: COc1ccc(CC(=O)Nc2cccc(C(=O)NN3C(=O)c4ccccc4C3=O)c2C)cc1
The “hERG current change (%, negative = inhibition) at 1uM” value of the first is lower: 0.74% for the first, 10.2% for the second.

Compared with CC(C)NC(=O)C1CCN(C2CCN(Cc3ccc4cccc(F)c4n3)CC2)CC1, O=C(NCc1ccc(F)cc1)c1cc(C(=O)C2CC2)c[nH]1 is lower in “hERG current change (%, negative = inhibition) at 1uM” value: 6.69% for the first, 4.05% for the second.

First: COc1cc(NC(=O)CN(c2cc(C)cc(C)c2)S(=O)(=O)c2c(C)noc2C)cc(OC)c1
Second: COc1ccc2c(c1)oc(=O)c1cc(OC)ccc12
The “hERG current change (%, negative = inhibition) at 1uM” value of the first is lower: 3.95% for the first, 15.7% for the second.

Going from O=C(CC1C(=O)NCCN1Cc1cccc(Oc2ccccc2)c1)NCCn1cccn1 (centres unmarked) to CCC(C)NC(=O)c1cn(CCOC)c(=O)c2c1c1ccccc1n2C (centres unmarked), the “hERG current change (%, negative = inhibition) at 1uM” value rises from -2.88% to 21.6%.

Compared with COc1cc(O)c(C(CC(=O)N2CCCC(C)C2)c2ccc3c(c2)OCO3)c(OC)c1 (centres unmarked), CC1CCN(C(C(=O)O)c2ccccc2)CC1.Cl (centres unmarked) is higher in “hERG current change (%, negative = inhibition) at 1uM” value: 14.5% for the first, 15.1% for the second.

Compared with CCC(NC(=O)Nc1nnc(C(F)(F)F)s1)(C(F)(F)F)C(F)(F)F, C=CCC1C=CCC(CC=C)N1C(=O)c1ccccc1[N+](=O)[O-] (centres unmarked) is higher in “hERG current change (%, negative = inhibition) at 1uM” value: 4.85% for the first, 8.25% for the second.

First: O=C(COc1ccc(C(=S)N2CCOCC2)cc1)N1CCOCC1
Second: N/C(=N/[N+](=O)[O-])N1CCN(C(=O)c2ccc(Cl)cc2)CC1
The “hERG current change (%, negative = inhibition) at 1uM” value of the first is higher: 11.8% for the first, 5.02% for the second.

First: CC(C)(C)C1(C)OC(C(=O)NC2CCCCC2)C(C(=O)NC2CCCCC2)O1 (centres unmarked)
Second: O=C(OCc1c(Cl)nc2sccn12)c1cc2c(s1)CCCC2
The “hERG current change (%, negative = inhibition) at 1uM” value of the first is lower: -0.895% for the first, 9.38% for the second.

Going from Cc1ccc(/C=C(/C#N)C(=O)NC(C)c2ccccc2)o1 (centres unmarked) to Cc1ccc(NC(NC(=O)c2ccccc2[N+](=O)[O-])C(Cl)(Cl)Cl)cc1 (centres unmarked), the “hERG current change (%, negative = inhibition) at 1uM” value falls from 9.29% to 2.88%.

From article PMC4336329 (PLoS ONE, 2015)
